# According to the supplement of paper PMC10322689:
# Where “and” joins values, the source holds several entries; their conditions need not be identical. Identical values can stand only once. Counter-ions that a name gives are not always drawn. ± gives the standard deviation of the averaged measurements. The list shows a part of the results. Repeats are few or missing, and single values can be far off.
# Tested on: mouse mesenchymal chondrosarcoma cells (HEY1-NCOA2)
# Test: XTT absorbance relative to DMSO control (cell viability) (fraction of DMSO control); higher = more viable cells / less growth inhibition
row,Structure (SMILES),XTT absorbance
1,O=C(CCCCCCC(=O)Nc1ccccc1)NO [vorinostat],0.783
2,CC(C)c1cc(/C=C(\C#N)C(=O)NCCCc2ccccc2)cc(C(C)C)c1O,0.923 ± 0.0052
3,C[C@@H](N)[C@H]1CC[C@H](C(=O)Nc2ccncc2)CC1,0.906 and 0.909
4,Cc1cc(Nc2cc(N3CCN(C)CC3)nc(/C=C/c3ccccc3)n2)n[nH]1,0.698
5,CC(Cc1ccc(O)c(O)c1)C(C)Cc1ccc(O)c(O)c1 (stereo unspecified) [Nordihydroguaiaretic acid (NDGA)],0.905
6,Cc1c[nH]c(/C=C2\C(=O)Nc3ccccc32)c1CCC(=O)O,0.926
7,Cc1cccc(-c2nn(C(=S)Nc3ccccc3)cc2-c2ccnc3ccccc23)n1,0.807
8,COc1ccc(Cl)cc1C(=O)NCCc1ccc(S(=O)(=O)NC(=O)NC2CCCCC2)cc1 [Glibenclamide],1.02
9,CO[C@H]1C[C@@H]2CC[C@@H](C)[C@@](O)(O2)C(=O)C(=O)N2CCCC[C@H]2C(=O)O[C@H]([C@H](C)C[C@@H]2CC[C@@H](O)[C@H](OC)C2)CC(=O)[C@H](C)/C=C(\C)[C@@H](O)[C@@H](OC)C(=O)[C@H](C)C[C@H](C)/C=C/C=C/C=C/1C [Rapamycin],0.675
10,CC(C)CC(NC(=O)CNC(=O)OCc1ccccc1)C(=O)NC(Cc1ccccc1)C(=O)CCl (stereo unspecified),0.936
11,O=C(O)c1cc(NCc2cc(O)ccc2O)ccc1O [Lavendustin C],0.969
12,CCCCN1C(=O)C2Cc3c([nH]c4ccccc34)C(c3cccc(O)c3)N2C1=O (stereo unspecified),0.7
13,"CC/C(=C(\c1ccccc1)c1ccc(OCCN(C)C)cc1)c1ccccc1 [Tamoxifen, citrate]",0.997
14,CNC(=O)[C@H](Cc1c[nH]c2ccccc12)NC(=O)[C@@H](CC(=O)NO)CC(C)C,0.861
15,COC(=O)Nc1nc2cc(C(=O)c3cccs3)ccc2[nH]1 [Nocodazole],0.547
16,CN(C)CC[C@H](CSc1ccccc1)Nc1ccc(S(=O)(=O)NC(=O)c2ccc(N3CCN(Cc4ccccc4-c4ccc(Cl)cc4)CC3)cc2)cc1[N+](=O)[O-],1.01
17,Cc1cc([N+](=O)[O-])ccc1NS(=O)(=O)c1cc(Cl)ccc1Cl,1
18,Cc1ccc(NC(=O)c2ccc(CN3CCN(C)CC3)cc2)cc1Nc1nccc(-c2cccnc2)n1 [imatinib mesylate],0.894

row,Structure (SMILES),XTT absorbance
1,CS(=O)(=O)CCNCc1ccc(-c2ccc3ncnc(Nc4ccc(OCc5cccc(F)c5)c(Cl)c4)c3c2)o1 [lapatinib],1.08
2,CC1(C)CCC(C)(C)c2cc(NC(=O)c3ccc(C(=O)O)cc3)ccc21 [tamibarotene],1.09
3,CCOC(=O)C1=C(C)NC(=S)NC1c1cccc(O)c1 (stereo unspecified) [Monastrol],0.923
4,Oc1ccc(-c2nc(-c3ccc(F)cc3)c(-c3ccncc3)[nH]2)cc1,0.908
5,Cc1c2oc3c(C)ccc(C(=O)N[C@@H]4C(=O)N[C@H](C(C)C)C(=O)N5CCC[C@H]5C(=O)N(C)CC(=O)N(C)[C@@H](C(C)C)C(=O)O[C@@H]4C)c3nc-2c(C(=O)N[C@@H]2C(=O)N[C@H](C(C)C)C(=O)N3CCC[C@H]3C(=O)N(C)CC(=O)N(C)[C@@H](C(C)C)C(=O)O[C@@H]2C)c(N)c1=O [Actinomycin D],0.238
6,CC(/C=C/C(=O)NO)=C\[C@@H](C)C(=O)c1ccc(N(C)C)cc1 [Trichostatin A],0.244
7,COc1cc(/C=C(\C#N)C(N)=O)cc(CSc2nc3ccccc3s2)c1O,0.936 ± 0.044
8,Nc1cccc2c1CN(C1CCC(=O)NC1=O)C2=O (stereo unspecified) [lenalidomide],0.937
9,C/C=C/C=C\C=C/C(O)C(C)C(CCC(C)C1OC(=O)C=CC1C)OP(=O)(O)O (stereo unspecified) [Cytostatin],0.888
10,COc1cc2ncc(-c3ccccc3)nc2cc1OC,0.859 ± 0.056
11,N=C(N)NC(=O)c1nc(Cl)c(N)nc1N [Amiloride],0.886
12,COC(=O)CNC(=O)C(=O)OC [Dimethyloxalylglycine],0.939
13,O=C(Cc1ccccc1)Nc1c2c(nc3ccccc13)N(Cc1ccccc1)CC2,0.92
14,Nc1cccc(-c2cc3c(Oc4cccc(O)c4)ncnc3[nH]2)c1,0.703
15,"N#CCCc1ccc2c(c1)-c1[nH]c3ccc([N+](=O)[O-])cc3c1CC(=O)N2 [Alsterpaullone, 2-cyanoethyl]",0.912
16,COC(=O)c1ccc(NCc2cc(O)ccc2O)cc1,0.889 ± 0.014
17,Nc1ncnc2nc(-c3ccc(N4CCOCC4)nc3)cc(-c3cccc(Br)c3)c12,0.971
18,COc1cc2c(NC3CCN(C(C)C)CC3)nc(C3CCCCC3)nc2cc1OCCCN1CCCC1,0.943
